Results taken from the supplement of paper PMC7826260.
The list shows a part of the results. Viral Rep nickase domains cut single-stranded DNA in vitro at 3 µM enzyme and 37 °C for 1 h; the strands have 90 letters, of which the middle is given. Values are log2 of uncut reads against the no-enzyme pool; the lower, the more was cut; hits are not called. Shares of all reads are compared, so uncut sequences can rise above 0 when many others are cut.

What was measured:
Assay in all cases: uncleaved DNA left, log2 of reads against the no-enzyme library (log2 ratio); higher = less cleavage (more negative = more Rep cleavage of the k-mer); sequences stand for … in CTCGTCCG…ACCGGAGA
[1] = system: T1, Rep nickase domain of Muscovy duck circovirus
T1 sequence (Rep 1-111, printed without the tag): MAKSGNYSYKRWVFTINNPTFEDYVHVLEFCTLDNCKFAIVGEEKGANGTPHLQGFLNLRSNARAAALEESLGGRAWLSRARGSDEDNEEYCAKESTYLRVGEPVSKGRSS
Experimental: (§1)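 A pool of 90-nt single-stranded DNAs with seven random bases just before the constant AC of the nick site (name = the seven bases) was cut by 3 µM recombinant His6-SUMO-tagged Rep nickase domain (300 nM DNA, 50 mM HEPES pH 8.0, 50 mM NaCl, 1 mM MnCl2, 1 h, 37 °C, three replicates). Uncut DNA was amplified and sequenced.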

[2] = system: T2, Rep nickase domain of banana bunchy top virus
T2 sequence (Rep 1-94, printed without the tag): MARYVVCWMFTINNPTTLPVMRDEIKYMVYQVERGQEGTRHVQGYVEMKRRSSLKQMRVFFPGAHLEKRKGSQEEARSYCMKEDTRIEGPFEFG
Experimental: as §1

[3] = system: T3, Rep nickase domain of cabbage leaf curl virus
T3 sequence (Rep 1-116, printed without the tag): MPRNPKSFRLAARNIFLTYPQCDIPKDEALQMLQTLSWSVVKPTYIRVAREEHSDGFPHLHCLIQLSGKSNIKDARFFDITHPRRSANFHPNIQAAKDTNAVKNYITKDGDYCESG
Experimental: as §1

[4] = system: T4, Rep nickase domain of chickpea chlorotic dwarf virus
T4 sequence (Rep 1-124, printed without the tag): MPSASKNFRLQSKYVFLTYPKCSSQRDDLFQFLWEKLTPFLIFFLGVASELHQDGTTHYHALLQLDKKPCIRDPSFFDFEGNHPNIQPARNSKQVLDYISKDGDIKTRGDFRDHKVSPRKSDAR
Experimental: as §1

[5] = system: T5, Rep nickase domain of faba bean necrotic yellows virus
T5 sequence (Rep 1-98, printed without the tag): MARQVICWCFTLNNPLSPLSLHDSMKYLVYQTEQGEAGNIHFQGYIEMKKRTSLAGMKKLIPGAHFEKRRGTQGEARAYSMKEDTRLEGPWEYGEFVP
Experimental: as §1

[6] = system: T6, Rep nickase domain of maize striate mosaic virus
T6 sequence (Rep 1-117, printed without the tag): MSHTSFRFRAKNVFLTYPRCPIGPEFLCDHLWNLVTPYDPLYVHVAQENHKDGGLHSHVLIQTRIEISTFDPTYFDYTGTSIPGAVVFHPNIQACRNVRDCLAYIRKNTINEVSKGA
Experimental: as §1

[7] = system: T7, Rep nickase domain of porcine circovirus 2
T7 sequence (Rep 2-116, printed without the tag): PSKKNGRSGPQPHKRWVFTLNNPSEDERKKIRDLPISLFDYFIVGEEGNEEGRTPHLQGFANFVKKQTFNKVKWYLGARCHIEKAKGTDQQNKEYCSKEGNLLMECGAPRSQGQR
Experimental: as §1

[8] = system: T8, Rep nickase domain of tomato golden mosaic virus
T8 sequence (Rep 1-124, printed without the tag): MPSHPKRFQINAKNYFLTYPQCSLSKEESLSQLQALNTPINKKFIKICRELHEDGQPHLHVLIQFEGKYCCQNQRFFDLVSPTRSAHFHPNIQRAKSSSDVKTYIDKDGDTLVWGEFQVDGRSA
Experimental: as §1

[9] = system: T9, Rep nickase domain of tomato yellow leaf curl virus
T9 sequence (Rep 1-136, printed without the tag): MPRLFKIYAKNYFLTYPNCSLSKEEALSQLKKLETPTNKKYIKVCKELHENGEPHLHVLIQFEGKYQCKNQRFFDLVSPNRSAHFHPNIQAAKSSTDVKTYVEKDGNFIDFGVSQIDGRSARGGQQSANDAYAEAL
Experimental: as §1

[10] = system: T10, Rep nickase domain of wheat dwarf virus
T10 sequence (Rep 1-137, printed without the tag): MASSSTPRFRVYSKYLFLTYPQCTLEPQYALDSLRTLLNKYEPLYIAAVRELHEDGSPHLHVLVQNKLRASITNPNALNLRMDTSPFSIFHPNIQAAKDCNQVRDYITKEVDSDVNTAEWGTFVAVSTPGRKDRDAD
Experimental: as §1

Sequence	uncleaved DNA left (log2) [1]	uncleaved DNA left (log2) [2]	uncleaved DNA left (log2) [3]	uncleaved DNA left (log2) [4]	uncleaved DNA left (log2) [5]	uncleaved DNA left (log2) [6]	uncleaved DNA left (log2) [7]	uncleaved DNA left (log2) [8]	uncleaved DNA left (log2) [9]	uncleaved DNA left (log2) [10]
CCTGAGG	0.0564	0.17	0.683	1.62	0.119	1.71	0.154	0.349	0.181	0.114
AGGGCAT	-0.0432	0.0233	0.591	1.95	0.0712	2.09	0.109	0.00798	-0.119	0.139
CAAGATG	-0.137	-0.0339	0.204	1.25	0.0484	1.47	-0.00362	0.00336	-0.171	0.0436
AAGCGAA	-0.00179	0.0317	-0.0551	0.263	0.0462	-0.0798	0.0132	0.0527	-0.0991	-0.0774
GTGGGGA	0.0753	-0.0326	0.533	1.09	-0.0285	1.75	0.0914	-0.0712	-0.0584	0.0182
TCACGGC	0.134	0.0113	0.0581	-0.0182	-0.0567	-0.51	0.0764	-0.0647	-0.027	-0.071
GCCCTAG	-0.0825	-0.085	-0.523	-0.347	-0.204	-1	-0.0104	-0.0078	0.00751	-0.265
TTGGATG	-0.172	-0.195	-0.387	-0.281	-0.111	-0.49	-0.0399	-0.152	-0.1	-0.194
CCGTCGG	0.00129	0.0494	0.443	1.26	0.00722	1.49	0.114	0.193	-0.0312	0.00868
TCCCCTG	-0.194	-0.104	-0.075	-0.352	-0.0448	-0.0947	-0.026	-0.125	-0.168	-0.0186
TCCGCTA	-0.158	-0.173	-0.0663	-0.501	-0.12	-0.442	-0.0567	-0.227	-0.275	-0.194
ATATGCG	-0.141	-0.0706	0.227	1.55	-0.0437	1.56	0.101	-0.139	-0.173	-0.125
GGAACCT	0.0785	0.061	0.745	1.55	0.0761	2.14	0.0598	0.0756	0.137	0.282
GCGGACA	-0.0163	0.267	0.937	2.1	0.0935	2.31	0.325	0.0691	0.0527	0.201
TACGCCG	-0.129	-0.106	-0.884	-0.307	0.0634	-0.949	0.0664	-0.0525	-0.052	-0.199
GGTACGT	0.0298	0.127	0.813	1.92	-0.0427	2.16	0.119	0.034	0.0611	0.0345
GATGGCG	-0.0213	-0.0666	-0.519	0.909	0.117	0.0317	0.129	-0.145	0.0239	-0.155
TCCCAAC	-0.0285	0.0377	-0.00311	-1.09	0.0803	-0.42	-0.0367	0.0448	0.0279	-0.0057
ACACTTA	-0.173	-0.129	-0.427	-1.52	-0.153	-0.957	-0.0381	-0.128	-0.0869	-0.061
ATAATAA	0.0275	0.0934	-0.1	-0.447	-0.0286	-0.762	0.0261	0.0109	-0.13	-0.0574

Sequence	uncleaved DNA left (log2) [1]	uncleaved DNA left (log2) [2]	uncleaved DNA left (log2) [3]	uncleaved DNA left (log2) [4]	uncleaved DNA left (log2) [5]	uncleaved DNA left (log2) [6]	uncleaved DNA left (log2) [7]	uncleaved DNA left (log2) [8]	uncleaved DNA left (log2) [9]	uncleaved DNA left (log2) [10]
GCGAGAC	-0.00881	0.0188	0.719	1.58	0.0258	1.8	0.124	0.0267	0.108	0.123
GACCTAC	0.12	0.0403	0.24	-0.131	0.00708	0.398	0.00288	0.134	0.104	0.0599
AACCCAT	-0.0392	0.0359	0.114	-1.82	0.0343	-0.0246	-0.378	-0.0533	0.209	0.1
TGCATGT	0.0266	-0.0523	-0.18	-0.374	-0.139	-0.703	-0.0515	-0.0853	0.0124	-0.0642
TATTATA	-3.22	-1.65	-0.0951	-2.83	0.0179	-0.463	-3.04	-0.00929	0.00339	-0.0956
GGTTTAA	0.0967	0.153	0.41	0.992	0.064	1.8	0.113	0.183	0.187	0.248
GCTACTT	0.0225	0.0301	0.152	-0.986	0.0226	0.705	-0.149	-0.0579	-0.123	0.0214
CGCTTAC	0.0406	-0.171	-0.307	-1.69	-0.147	-0.669	-0.137	-0.192	-0.0815	-0.104
GCTGAAA	0.0611	0.0824	0.128	0.6	0.0627	0.782	0.0685	0.0804	0.0967	0.0616
GCAGTTT	-0.00164	-0.169	0.0291	-1.33	-0.0923	-0.158	-0.0991	-0.0378	-0.0555	-0.0495
GCGGCGT	-0.0434	0.0144	-0.0229	0.299	0.0838	-0.0636	0.148	0.0717	-0.0441	-0.0859
CTTTCCA	-0.0808	0.0174	-0.00171	-1.33	-0.112	-0.494	-0.256	-0.146	0.0342	0.0651
TAAATGT	0.00623	-0.101	-3.76	-3.08	0.149	-2.32	-0.473	-2.42	-0.0139	-3.59
TGCGAGC	0.019	0.0329	0.113	0.493	0.126	0.141	0.217	0.15	0.0603	0.137
TGAAAGC	-0.0596	-0.0817	-0.225	-0.307	-0.0298	-0.855	-0.0285	-0.0337	-0.0741	-0.0712
TCTCTTA	0.0132	-0.0494	0.198	-0.957	0.0333	-0.283	-0.0412	0.0923	0.0624	0.0198
TCTCACT	-0.0276	-0.0847	0.0883	-2.25	-0.0825	-0.243	-0.651	0.025	-0.0581	-0.221
CCTTCCG	-0.0423	-0.0156	-0.841	0.0362	-0.0186	-0.948	0.173	-0.109	0.0112	-0.136
GTCACCC	0.023	0.0764	0.265	0.766	-0.0468	1.43	-0.132	-0.00742	0.0725	0.0307
AGCTTAT	-0.17	0.00387	0.0731	-0.047	-0.0959	0.0518	-1.67	-0.0367	0.0674	-0.0521

Sequence	uncleaved DNA left (log2) [1]	uncleaved DNA left (log2) [2]	uncleaved DNA left (log2) [3]	uncleaved DNA left (log2) [4]	uncleaved DNA left (log2) [5]	uncleaved DNA left (log2) [6]	uncleaved DNA left (log2) [7]	uncleaved DNA left (log2) [8]	uncleaved DNA left (log2) [9]	uncleaved DNA left (log2) [10]
CCATCTT	-3.29	-0.162	-0.584	-2.58	0.0557	-0.763	-3.19	-0.173	0.0432	-0.213
TTGGGAT	-0.112	-0.0566	0.157	1.52	-0.0933	1.77	0.0803	-0.0928	-0.0573	0.0552
TCGCGGG	0.132	-0.0378	0.0846	0.128	0.014	-0.145	0.185	0.162	0.255	0.173
AAAGAGC	0.0585	0.0365	-0.147	-0.197	-0.0491	-0.889	0.0945	0.0257	0.0591	-0.0353
CAGCAAT	0.058	0.0841	0.0962	-0.445	0.0716	0.027	-2.87	0.153	-0.00292	0.133
GGTCAAG	0.151	0.139	0.0937	0.314	0.0584	-0.198	0.209	0.0494	0.119	0.109
CCACCTA	-0.202	-0.00229	-0.0924	-1.35	-0.0403	-0.778	-0.322	-0.155	-0.0309	-0.056
AATTTGA	-0.17	-0.0375	-0.183	-0.596	-0.0115	-1.22	-0.28	-0.0746	-0.0894	-0.0353
CGGTGTG	-0.0745	-0.302	-0.623	-0.315	0.0123	-0.754	-0.103	-0.109	-0.0497	-0.354
AGCGGGC	-0.0124	0.144	0.0405	0.342	-0.0949	0.0886	0.128	0.0766	0.0267	0.0375
AGAATTG	0.0409	-0.00781	-0.181	0.0438	-0.131	-0.213	0.0657	-0.0163	-0.0478	-0.0126
GTTACCA	0.124	0.126	0.428	0.903	0.0624	1.9	0.143	0.163	0.189	0.203
TGCATTT	-0.0457	-0.054	-0.119	-1.64	-0.149	-0.68	-0.28	-0.174	0.0375	-0.0426
AGTTCCA	-0.0302	-0.00997	0.173	-0.229	-0.0918	0.25	-0.506	-0.0524	0.0401	-0.00695
AGGGTTG	-0.0154	0.0126	0.204	0.867	0.0825	1.02	0.122	0.106	-0.0444	0.0468
TATGAAA	-0.0164	0.18	0.163	-0.566	0.0146	-0.251	-0.0485	0.085	0.0927	0.148
GGGACTA	0.00435	0.117	0.869	2.14	-0.0464	2.33	0.18	0.0391	-0.0533	0.178
CTCGGCG	0.128	0.0699	-0.698	0.431	0.0813	-0.658	0.0449	-0.0394	0.0143	-0.116
TAGTAGA	0.0991	0.00263	0.108	-0.612	-0.0431	-0.821	-2.76	0.083	0.107	0.00648
AAACGGT	-0.0421	-0.127	0.126	0.976	-0.0434	1.48	-0.0761	-0.0299	-0.183	-0.102
